Results: article PMC9911399, “Two distinct binding modes provide the RNA-binding protein RbFox with extraordinary sequence specificity”
Substitutions are numbered along the chain they refer to; changes in the protein carry UniProt numbers. The list shows a part of the results.

T1: RBFOX1 RRM RbFoxmut (Fox-RRM*) (Homo sapiens, UniProt Q9NWB1 109-208, R118D;E147R;N151S;E152T)
T1 sequence: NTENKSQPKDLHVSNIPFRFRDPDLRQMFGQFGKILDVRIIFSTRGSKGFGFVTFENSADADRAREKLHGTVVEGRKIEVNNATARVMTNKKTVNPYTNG

B1: ACCUACU (DNA:RNA)
RNA: GGGAGACCGGAAUUCAGAUUGUCCACCUACUUUAAAUCCCGUCGUAGCCACCA
DNA 1: CAATCTGAATTCCGGTCTCCC
DNA 2: TGGTGGCTACGACGGGATT
B2: UCUGGAU (DNA:RNA)
RNA: B1 RNA with A25U, C27U, U28G, A29G, C30A
DNA 1: CAATCTGAATTCCGGTCTCCC
DNA 2: TGGTGGCTACGACGGGATT
B3: UGCCGGA (DNA:RNA)
RNA: B1 RNA with A25U, C26G, U28C, A29G, C30G, U31A
DNA 1: CAATCTGAATTCCGGTCTCCC
DNA 2: TGGTGGCTACGACGGGATT
B4: CCAAAAG (DNA:RNA)
RNA: B1 RNA with A25C, C27A, U28A, C30A, U31G
DNA 1: CAATCTGAATTCCGGTCTCCC
DNA 2: TGGTGGCTACGACGGGATT
B5: AAUUGCC (DNA:RNA)
RNA: B1 RNA with C26A, C27U, A29G, U31C
DNA 1: CAATCTGAATTCCGGTCTCCC
DNA 2: TGGTGGCTACGACGGGATT
B6: AAAAAGG (DNA:RNA)
RNA: B1 RNA with C26A, C27A, U28A, C30G, U31G
DNA 1: CAATCTGAATTCCGGTCTCCC
DNA 2: TGGTGGCTACGACGGGATT
B7: AUGUCAG (DNA:RNA)
RNA: B1 RNA with C26U, C27G, A29C, C30A, U31G
DNA 1: CAATCTGAATTCCGGTCTCCC
DNA 2: TGGTGGCTACGACGGGATT
B8: GUUUUAA (DNA:RNA)
RNA: B1 RNA with A25G, C26U, C27U, A29U, C30A, U31A
DNA 1: CAATCTGAATTCCGGTCTCCC
DNA 2: TGGTGGCTACGACGGGATT
B9: UAGCGGG (DNA:RNA)
RNA: GGGAGACCGGAAUUCAGAUUGUCCUAGCGGGUUAAAUCCCGUCGUAGCCACCA
DNA 1: CAATCTGAATTCCGGTCTCCC
DNA 2: TGGTGGCTACGACGGGATT
B10: GCACGUA (DNA:RNA)
RNA: B9 RNA with U25G, A26C, G27A, G30U, G31A
DNA 1: CAATCTGAATTCCGGTCTCCC
DNA 2: TGGTGGCTACGACGGGATT
B11: GGGUAAC (DNA:RNA)
RNA: B1 RNA with A25G, C26G, C27G, C30A, U31C
DNA 1: CAATCTGAATTCCGGTCTCCC
DNA 2: TGGTGGCTACGACGGGATT
B12: AAUGACU (DNA:RNA)
RNA: B1 RNA with C26A, C27U, U28G
DNA 1: CAATCTGAATTCCGGTCTCCC
DNA 2: TGGTGGCTACGACGGGATT
B13: CCCCACG (DNA:RNA)
RNA: B1 RNA with A25C, U28C, U31G
DNA 1: CAATCTGAATTCCGGTCTCCC
DNA 2: TGGTGGCTACGACGGGATT
B14: GCUCUAU (DNA:RNA)
RNA: B1 RNA with A25G, C27U, U28C, A29U, C30A
DNA 1: CAATCTGAATTCCGGTCTCCC
DNA 2: TGGTGGCTACGACGGGATT
B15: AUAGUAG (DNA:RNA)
RNA: B1 RNA with C26U, C27A, U28G, A29U, C30A, U31G
DNA 1: CAATCTGAATTCCGGTCTCCC
DNA 2: TGGTGGCTACGACGGGATT
B16: CUUACCA (DNA:RNA)
RNA: B1 RNA with A25C, C26U, C27U, U28A, A29C, U31A
DNA 1: CAATCTGAATTCCGGTCTCCC
DNA 2: TGGTGGCTACGACGGGATT
B17: UAACAGG (DNA:RNA)
RNA: B9 RNA with G27A, G29A
DNA 1: CAATCTGAATTCCGGTCTCCC
DNA 2: TGGTGGCTACGACGGGATT
B18: AAGCAAC (DNA:RNA)
RNA: B9 RNA with U25A, G29A, G30A, G31C
DNA 1: CAATCTGAATTCCGGTCTCCC
DNA 2: TGGTGGCTACGACGGGATT
B19: AGUGCUU (DNA:RNA)
RNA: B1 RNA with C26G, C27U, U28G, A29C, C30U
DNA 1: CAATCTGAATTCCGGTCTCCC
DNA 2: TGGTGGCTACGACGGGATT
B20: UCAAACC (DNA:RNA)
RNA: B1 RNA with A25U, C27A, U28A, U31C
DNA 1: CAATCTGAATTCCGGTCTCCC
DNA 2: TGGTGGCTACGACGGGATT
B21: GGAAUUA (DNA:RNA)
RNA: GGGAGACCGGAAUUCAGAUUGUCCGGAAUUAUUAAAUCCCGUCGUAGCCACCA
DNA 1: CAATCTGAATTCCGGTCTCCC
DNA 2: TGGTGGCTACGACGGGATT
B22: CACUGAC (DNA:RNA)
RNA: B1 RNA with A25C, C26A, A29G, C30A, U31C
DNA 1: CAATCTGAATTCCGGTCTCCC
DNA 2: TGGTGGCTACGACGGGATT
B23: GAAAAAU (DNA:RNA)
RNA: B21 RNA with G26A, U29A, U30A, A31U
DNA 1: CAATCTGAATTCCGGTCTCCC
DNA 2: TGGTGGCTACGACGGGATT
B24: GCCUGAA (DNA:RNA)
RNA: B1 RNA with A25G, A29G, C30A, U31A
DNA 1: CAATCTGAATTCCGGTCTCCC
DNA 2: TGGTGGCTACGACGGGATT
B25: CAUGCGA (DNA:RNA)
RNA: B9 RNA with U25C, G27U, C28G, G29C, G31A
DNA 1: CAATCTGAATTCCGGTCTCCC
DNA 2: TGGTGGCTACGACGGGATT
B26: UAGGGGU (DNA:RNA)
RNA: B9 RNA with C28G, G31U
DNA 1: CAATCTGAATTCCGGTCTCCC
DNA 2: TGGTGGCTACGACGGGATT
B27: AACUACC (DNA:RNA)
RNA: B1 RNA with C26A, U31C
DNA 1: CAATCTGAATTCCGGTCTCCC
DNA 2: TGGTGGCTACGACGGGATT
B28: UGAGUGG (DNA:RNA)
RNA: B21 RNA with G25U, A28G, U30G, A31G
DNA 1: CAATCTGAATTCCGGTCTCCC
DNA 2: TGGTGGCTACGACGGGATT
B29: CAGUUAC (DNA:RNA)
RNA: B9 RNA with U25C, C28U, G29U, G30A, G31C
DNA 1: CAATCTGAATTCCGGTCTCCC
DNA 2: TGGTGGCTACGACGGGATT
B30: GGGGUAA (DNA:RNA)
RNA: B21 RNA with A27G, A28G, U30A
DNA 1: CAATCTGAATTCCGGTCTCCC
DNA 2: TGGTGGCTACGACGGGATT
B31: CGCCUGU (DNA:RNA)
RNA: B1 RNA with A25C, C26G, U28C, A29U, C30G
DNA 1: CAATCTGAATTCCGGTCTCCC
DNA 2: TGGTGGCTACGACGGGATT

Biological target: T1, RBFOX1 RRM RbFoxmut (Fox-RRM*)
Assay: EMSA; HiTS-Eq, 1 nM pool, 10 min; buffer printed only for the single-RNA assays: 10 mM Tris pH 7.5, 150 mM NaCl, 3.4 mM EDTA, 0.001% NP-40, 30 C
Settings: tags: His6 N-terminal (pET28a); label: 5' 32P
Procedure, shortened: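 Purified RbFox RRM, wild type or mutant, was incubated for 10 min in 50 µL with 1 nM of a 5′-radiolabelled RNA pool carrying 7 randomized nucleotides, whose flanks were annealed to DNA oligonucleotides, over a series of increasing protein concentrations. Unbound RNA was resolved on 8% native PAGE, cut out, reverse-transcribed, barcoded by PCR and sequenced on an Illumina HiSeq 2500. Relative association constants were derived from changes in read counts for each RNA species versus the control reaction and normalised to the cognate motif.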

Question: B1 was tested. Which binding signal did it give?
Answer: 0.0924 KA relative to UGCAUGU

Question: For B2, which binding signal is on record?
Answer: 0.0456 KA relative to UGCAUGU

Question: Which binding signal does the source give for B3 here?
Answer: 0.0729 KA relative to UGCAUGU

Question: B4 was tested. Which binding signal did it give?
Answer: 0.0785 KA relative to UGCAUGU

Question: With B5 as the binder, how does the binding signal read?
Answer: 0.207 KA relative to UGCAUGU

Question: B6 was tested. Which binding signal did it give?
Answer: 0.0629 KA relative to UGCAUGU

Question: For B7, which binding signal is on record?
Answer: 0.129 KA relative to UGCAUGU

Question: With B8 as the binder, how does the binding signal read?
Answer: 0.131 KA relative to UGCAUGU

Question: Which binding signal does the source give for B9 here?
Answer: 0.0899 KA relative to UGCAUGU

Question: Which binding signal does the source give for B10 here?
Answer: 0.382 KA relative to UGCAUGU

Question: Which binding signal does the source give for B11 here?
Answer: 0.0754 KA relative to UGCAUGU

Question: For B12, which binding signal is on record?
Answer: 0.0625 KA relative to UGCAUGU

Question: B13 was tested. Which binding signal did it give?
Answer: 0.107 KA relative to UGCAUGU

Question: With B14 as the binder, how does the binding signal read?
Answer: 0.0876 KA relative to UGCAUGU

Question: How did the binding signal turn out when B15 was run?
Answer: 0.173 KA relative to UGCAUGU

Question: How did the binding signal turn out when B16 was run?
Answer: 0.0834 KA relative to UGCAUGU

Question: How did the binding signal turn out when B17 was run?
Answer: 0.0922 KA relative to UGCAUGU

Question: With B18 as the binder, how does the binding signal read?
Answer: 0.0901 KA relative to UGCAUGU

Question: For B19, which binding signal is on record?
Answer: 0.102 KA relative to UGCAUGU

Question: With B20 as the binder, how does the binding signal read?
Answer: 0.0724 KA relative to UGCAUGU

Question: For B21, which binding signal is on record?
Answer: 0.107 KA relative to UGCAUGU

Question: With B22 as the binder, how does the binding signal read?
Answer: 0.102 KA relative to UGCAUGU

Question: With B23 as the binder, how does the binding signal read?
Answer: 0.0727 KA relative to UGCAUGU

Question: B24 was tested. Which binding signal did it give?
Answer: 0.115 KA relative to UGCAUGU

Question: Which binding signal does the source give for B25 here?
Answer: 0.0765 KA relative to UGCAUGU

Question: For B26, which binding signal is on record?
Answer: 0.128 KA relative to UGCAUGU

Question: How did the binding signal turn out when B27 was run?
Answer: 0.0444 KA relative to UGCAUGU

Question: How did the binding signal turn out when B28 was run?
Answer: 0.0803 KA relative to UGCAUGU

Question: With B29 as the binder, how does the binding signal read?
Answer: 0.111 KA relative to UGCAUGU

Question: How did the binding signal turn out when B30 was run?
Answer: 0.107 KA relative to UGCAUGU

Question: For B31, which binding signal is on record?
Answer: 0.207 KA relative to UGCAUGU
